The other results are listed elsewhere or left out. Many values rest on one well or one pass, so single values are uncertain.
System: WM3619
Assay: cell count relative to DMSO control; melanoma cells; higher = more viable cells
Settings: library dose: standard library concentration; 72 h
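Further: cells treated in 1,536-well plates, then fixed and DAPI-stained, with nuclei counted from automated high-throughput microscope images.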

Compound | cell count [%]
NC(=O)c1ccc(N(C(N)=O)c2c(F)cccc2F)nc1-c1ccc(F)cc1F + C=CCn1c(=O)c2cnc(Nc3ccc(N4CCN(C)CC4)cc3)nc2n1-c1cccc(C(C)(C)O)n1 [MK1775] (first compound 2 µM, partner dose 0.1 µM) | 67.2
Cc1ccc(NC(=O)c2cccc(N(C)C)c2)cc1NC(=O)c1ccc(O)cc1 + OCCn1cc(-c2cnc3nnn(Cc4ccc5ncccc5c4)c3n2)cn1 [PF04217903] (first compound 10 µM, partner dose 5 µM) | 100
Cc1ccc(NC(=O)c2cccc(N(C)C)c2)cc1NC(=O)c1ccc(O)cc1 + COc1cc2c(Oc3ccc4[nH]c(C)cc4c3F)ncnc2cc1OCCCN1CCCC1 [cediranib] (first compound 10 µM, partner dose 2 µM) | 125
NC(=O)c1ccc(N(C(N)=O)c2c(F)cccc2F)nc1-c1ccc(F)cc1F + COCC[n+]1c2c(n(Cc3cnccn3)c1C)C(=O)c1ccccc1C2=O [YM155] (first compound 2 µM, partner dose 0.002 µM) | 92.9
CCCCCCCCc1ccc(CCC(N)(CO)CO)cc1 [fingolimod] + O=C(Nc1cccc(Cl)c1)Nc1ncc(CCNc2ncnc3ccsc23)s1 [SNS314] (first compound 10 µM, partner dose 0.004 µM) | 5.5
CN(NC(=O)CC(=O)NN(C)C(=S)c1ccccc1)C(=S)c1ccccc1 + N#Cc1c(O)c2c(-c3ccc(-c4ccccc4O)cc3)csc2[nH]c1=O [A769662] (first compound 0.03 µM, partner dose 10 µM) | 8.6

From the supplement of paper PMC4604168 (melanoma cell lines)
